This note sets out measurements from PubChem BioAssay AID1508624 (National Center for Advancing Translational Sciences (NCATS), 2021).

Hit rate of the full screen: of about 48,000 compounds, about 120 (0.25%) were called active. About 4% were inconclusive and are not listed. Calls come from the whole dose curve; as a rule, active = well fitted activation curve with a large enough effect; inconclusive = small, poorly fitted or top-dose-only effect, or another doubt; inactive = no such curve, though single readings can be large or run the other way. This is one part of the list.
Potency is the fitted concentration of half-maximal effect.

The experiment in a line: Primary qHTS for Identification of Small Molecule Activators of Huntingtin-Antisense Promoter Activity. Note: nearly all actives have a fitted effect of over 55% in size. Conditions: HEK293 HTT-AS promoter firefly luciferase reporter, 24 h; series mostly up to 57.5 µM; activity change, positive = activation: at the top concentration. The method in brief:
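HEK293 cells carrying firefly luciferase reporters were seeded at 2,500 per well in Opti-MEM and cultured for 24 h. They were then treated with compounds at up to 57.5 uM final for 24 h at 37 degrees C before Dual-Glo luminescence readout.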
A general note: qHTS replaces the single test concentration by a dilution series.
For `COc1ccc(OC)c(NC(=O)Cn2cc(C(=O)c3cccs3)c3ccccc32)c1`, the “activity change, positive = activation” value is inactive: -29.1%.
On the same count and under the same terms, then `O=S(=O)(Nc1c(F)cccc1F)c1ccc2c(c1)OCCO2`, with inactive: -10.1%.
Take `Cc1ccc2oc(C(=O)Nc3c(C(=O)c4ccc(C)c(F)c4)oc4ccccc34)cc(=O)c2c1`: the activity change, positive = activation was inactive: 3.17% [at 11.5 µM, percent change from vehicle, -100% = no light].
Consider `COc1ccc(C)cc1NC(=O)C(CCSC)NS(=O)(=O)c1ccc2c(c1)oc(=O)n2C` (stereo not given), for which the “activity change, positive = activation” value was inactive: -24%.
The same measure, in the same setting: then `CCn1nnc2cc(C(=O)Nc3cccc(C(F)(F)F)c3)ccc21`, with inactive: 6.7%; and `CCOC(=O)N1CCc2c(sc3c2c(=O)n(Cc2ccccc2)c(=O)n3CC(=O)Nc2ccccc2F)C1`, with inactive: -13.5%.
For `CC(C)NC(=O)c1cnc2sc(N3CCCCCC3)nn2c1=O`, the “activity change, positive = activation” value was inactive: 9.27%.
The same measure, in the same setting: then `CCOC(=O)c1c(C)[nH]c(CCC(=O)Nc2ccc(N(CC)CC)cc2C)c1C`, with inactive: -17.7%; and `COc1ccc(CN(C(=O)Nc2ccccc2)c2ccccn2)cc1OC`, with inactive: 0.891%.
For the molecule `Cc1ccc(S(=O)(=O)N(Cc2nc(-c3ccc(Cl)cc3)no2)C2CCCCC2)cc1`, the “activity change, positive = activation” value is inactive: -26.2%.
Still for that read-out and setting: then `Cc1ccc(C)c(N2CCN(C(=O)C3CCN(Cc4nc(-c5cccc(Cl)c5)oc4C)CC3)CC2)c1`, with inactive: -33.9%; and `NC(=O)C1(N2CCCCC2)CCN(C(=O)Nc2ccc(Cl)c(Cl)c2)CC1`, with inactive: -8.89%.
On the same count and under the same terms, then `COc1cccc(NC(=O)c2sc3nc(C)c(C(=O)Nc4ccc(C)cc4C)c(-c4ccc(Br)cc4)c3c2N)c1`, with inactive: -8.21%; and `Cc1cc(Cl)ccc1NC(=O)C1CCN(S(=O)(=O)c2ccc3[nH]c(=O)ccc3c2)CC1`, with inactive: -12.5%.
As for `Cc1ccc2nc(SC(Cc3cc(Cl)ccc3Cl)C(=O)O)[nH]c2c1` (stereo not given), the “activity change, positive = activation” value was inactive: -9.32%.
Still for that read-out and setting: the same measure for `COc1ccc(CNC(=O)c2cc3sccc3n2C)cc1`: inactive: 8.11%; for `Cc1cccc(Cn2c(=O)n(CCc3ccccc3)c(=O)c3sc4ccccc4c32)c1`: inactive: 2.32%; for `Cc1ccc(CCNC(=O)CCSCc2ccccc2F)cc1`: inactive: -2.4%.
The same measure, in the same setting: the same measure for `O=C(CCOc1ccccc1)N(Cc1cccnc1)c1nc2c(Cl)cccc2s1`: inactive: -20.5%; for `Cc1ccc(C2c3[nH]c4ccccc4c3CCN2C(=O)c2ccc(N(C)C)cc2)cc1` (stereo not given): inactive: -27.8%.
As for `Cc1cc(NC(=O)c2ccc(Cl)c(Cl)c2)ccc1-c1cc2ccccc2oc1=O`, the “activity change, positive = activation” value is inactive: 13.2%.
On to `COc1ccc(NC(=O)Cn2c(=O)n(-c3ccccc3)c(=O)c3ccc(C(=O)NCc4ccc5c(c4)OCO5)cc32)cc1`, for which the “activity change, positive = activation” value was inactive: -11.5%.
On the same count and under the same terms, then `Oc1cccc(Nc2nc(-c3ccccc3)nc3ccccc23)c1`, with inactive: -8%; and `CC1(C)C(=O)N(CC(=O)Nc2ccc(OC(F)(F)F)cc2)c2ccccc21`, with inactive: -11.3%; and `CCCSc1ncc(Cl)c(C(=O)Nc2ccc(CC)cc2)n1`, with inactive: -21.3%.
On the same count and under the same terms, the same measure for `Cc1ccc(CNC(=O)CSc2nc3ccsc3c(=O)n2-c2ccc(C(=O)O)cc2)cc1`: inactive: -7.95%; for `CCN(CCCNC(=O)c1cc2cc3cc(OC)ccc3nc2s1)c1ccccc1`: inactive: 6.16%.
Take `O=C(CSC1=Nc2ccccc2C2=NC(CCC(=O)NC3CCCCC3)C(=O)N12)Nc1cccc(Cl)c1` (stereo not given): the “activity change, positive = activation” value was inactive: -22.7%.
For the molecule `CCOC(=O)C1CCC(CN(Cc2c(Cl)cccc2Cl)S(=O)(=O)c2ccc(F)c(C)c2)CC1` (stereo not given), the “activity change, positive = activation” value is inactive: -20.9%.
Same read-out and setting: then `COc1cccc(NC(=O)CCNS(=O)(=O)c2ccc3c(c2)CCCC(=O)N3)c1`, with inactive: 8.54%; and `CCOC(=O)c1c(C)[nH]c(C)c1S(=O)(=O)N(C)CC(=O)Nc1cc(Cl)ccc1OC`, with inactive: -23.8%.
The same measure, in the same setting: the same measure for `CCOCCCNC(=O)N1CCN(S(=O)(=O)c2ccc3c(ccn3C)c2)CC1`: inactive: -7.36%.
As for `COc1ccc(-c2noc(-c3ccc(N4CCOCC4)c([N+](=O)[O-])c3)n2)cc1OC`, the “activity change, positive = activation” value is inactive: -7.39%.
For `COc1ccccc1N1CCN(CCC(=O)Nc2cccc(F)c2)CC1`, the “activity change, positive = activation” value is inactive: 0%.
Same read-out and setting: then `Cn1c(=O)c2c(SCC(=O)NCC3CCCO3)nc(-c3ccccc3F)nc2n(C)c1=O` (stereo not given), with inactive: -3.97%; and `CCOC(=O)c1ccc(NS(=O)(=O)c2cc3c(cc2C)n(C)c(=O)c(=O)n3C)cc1`, with inactive: -16%; and `CCOc1ccc(NC(=O)CSc2oc(-c3cccs3)nc2S(=O)(=O)c2ccc(Cl)cc2)cc1`, with inactive: 3.87%.
The same measure, in the same setting: the same measure for `O=C(Cn1c(=O)n(-c2ccccc2)c(=O)c2ccc(C(=O)NCc3ccc4c(c3)OCO4)cc21)Nc1ccc(Br)cc1F`: inactive: -17.6%; for `CCOc1ccc(CNC(=O)c2cnc(SC)nc2CC)cc1`: inactive: -8.64%.
For the molecule `COc1ccc(CNc2nc(-c3ccc(OC)c(OC)c3)cc(C(F)(F)F)n2)cc1`, the “activity change, positive = activation” value is inactive: -24%.
On to `CCCCSCCCNC(=O)CN1C(=O)COc2ccc(S(=O)(=O)N3CCCC3)cc21`, for which the “activity change, positive = activation” value is inactive: -14%.
Regarding `O=C(c1ccc2c(c1)N(Cc1cccc(F)c1)C(=O)c1ccccc1S2)N1CCCC1`, the “activity change, positive = activation” value was inactive: -25%.
Same read-out and setting: then `CC(C)c1cnc2c(c1SCC(=O)NCc1ccccc1Cl)c(=O)n(C)c(=O)n2C`, with inactive: 1.75%; and `Cc1cccc2c1-c1sc(C(=O)N(C)c3cccc(Cl)c3)cc1CO2`, with inactive: 9.88%.
In the case of `COc1ccc(NC(=O)NC2COc3ccccc3C2)cc1Cl` (stereo not given), the “activity change, positive = activation” value was inactive: 14.9%.
On the same count and under the same terms, the same measure for `Cc1ccc(CN2C(=O)c3ccccc3CC2(C)C(=O)NC2CCCCC2)cc1` (stereo not given): inactive: -11.2%; for `Cc1cccc(N2CCN(C(=O)c3noc4c3COc3ccc(C)cc3-4)CC2C)c1` (stereo not given): inactive: -10.7%; for `CCOc1ccccc1C(=O)NC1(C(F)(F)F)C(=O)Nc2c1c(=O)[nH]c(=O)n2-c1ccc(F)cc1` (stereo not given): inactive: 6.7%.
Still for that read-out and setting: the same measure for `CSc1ccc(CCNC(=O)CCc2c(C)nc3ncnn3c2C)cc1`: inactive: -8.35%; for `COc1ccccc1N1CCN(CCN(C(=O)C2CCCCC2)c2ccccn2)CC1`: inactive: -15.1%.
On the same count and under the same terms, then `CN1C(=O)CC(c2ccccc2)C1=O` (stereo not given), with inactive: -4.43%; and `Cn1nnnc1SCCNCc1cc(Br)ccc1OCc1ccccc1Cl`, with inactive: -51.7%.
As for `OC[C@H]1O[C@@H](Oc2cc(O)cc(C=Cc3ccc(O)cc3)c2)[C@H](O)[C@@H](O)[C@H]1O`, the “activity change, positive = activation” value was inactive: 4.95%.
Take `Cc1ccc(C(=O)Nc2cccc3cccnc23)cc1Cl`: the Potency is active: 8.91 µM.
In the case of `COc1cccc(OC)c1C(=O)NCCc1csc(-c2ccc(Cl)cc2)n1`, the “activity change, positive = activation” value is inactive: -21.7%.
Regarding `COC(=O)c1c(-c2cccs2)csc1NC(=O)COc1ccc(C)cc1`, the “activity change, positive = activation” value was inactive: -8.88%.
Still for that read-out and setting: the same measure for `O=C(CCn1cccn1)Nc1ccc(Br)cc1F`: inactive: 15.3%.
Same read-out and setting: the same measure for `COc1ccc(CNC(=O)c2ccc3c(c2)N(Cc2c(F)cccc2Cl)C(=O)CS3)cc1`: inactive: -39.1%; for `Cc1nc2ccccc2n1CCc1nc2c3ccccc3nc(SCc3ccc(C#N)cc3)n2n1`: inactive: 6.08%.
The same measure, in the same setting: then `COc1cccc(NC(=O)CN(CCc2ccccc2)S(=O)(=O)c2ccc(Cl)cc2)c1`, with inactive: -14.5%; and `Nc1ccn([C@@H]2O[C@H](CO)[C@@H](O)C2(F)F)c(=O)n1`, with inactive: -21.6%.
Turning to `O=S(=O)(NCc1nc2cccnc2n1Cc1ccccc1Cl)c1ccc2c(c1)CCCC2`, the “activity change, positive = activation” value is inactive: -23.9%.
The same measure, in the same setting: then `CCOc1ccc(NS(=O)(=O)c2ccc3[nH]c4c(c3c2)CCCCC4)cc1`, with inactive: 7.3% [at 11.5 µM, percent change from vehicle, -100% = no light].
As for `O=C(COCc1cc(-c2ccc(F)cc2)on1)Nc1cc(F)ccc1F`, the “activity change, positive = activation” value was inactive: 0%.
On the same count and under the same terms, the same measure for `CCOc1ccccc1NS(=O)(=O)c1ccc2c(c1)oc(=O)n2C`: inactive: -14.4%; for `CCN(CC)CCCNC(=O)Cc1csc2nc(-c3ccc(Cl)cc3)cn12`: inactive: 1.89%.
On the same count and under the same terms, then `CCc1cc2c(cc3c(=O)n(CCCC(=O)NCc4cccc(Cl)c4)ncn32)s1`, with inactive: -33.7%.
On the same count and under the same terms, the same measure for `Cc1cc2c(n1-c1ccc(C(=O)NCc3ccccc3Cl)cc1)CCCC2`: inactive: 16.2%; for `O=C(CCSCc1ccccc1Cl)NCc1ccc(F)cc1Cl`: inactive: -7.43%.
As for `COc1ccccc1N1CCN(C(=O)c2c(C)oc3ncn(C)c(=O)c23)CC1`, the “activity change, positive = activation” value was inactive: -3.97%.
Same read-out and setting: the same measure for `Cc1cccc(CCNC(=O)c2cc3c(=O)n(C)c4ccccc4c3n2C)c1`: inactive: -4.97%.
For `O=C(CN1C(=O)CCn2nc(-c3ccccc3)cc21)NCc1ccc(Cl)cc1`, the “activity change, positive = activation” value was inactive: -31.9%.
As to `COc1ccc(NC(=O)c2oc3ccccc3c2NC(=O)Cc2coc3c(C)c(C)ccc23)cc1`, the “activity change, positive = activation” value is inactive: -3.52%.
As for `COc1ccccc1-c1cc(C(=O)NCc2ccccc2)c2c(-c3ccc(C)cc3)[nH]nc2n1`, the “activity change, positive = activation” value was inactive: -37.4%.
For `Fc1ccc(Cl)cc1-c1nc(Nc2ccncc2)c2nccnc2n1`, the “activity change, positive = activation” value was inactive: -3.57%.
With `Cc1ccc(S(=O)(=O)c2nc(S(=O)(=O)c3ccccc3)sc2NCCCOC(C)C)cc1`, the “activity change, positive = activation” value was inactive: -1.34%.
Still for that read-out and setting: then `CCOc1ccc(NC(=O)/C(C#N)=C\c2ccc(-c3ccc(Cl)cc3)o2)cc1`, with inactive: -16.7%; and `Cc1c(Cl)cccc1NC(=O)CCS(=O)(=O)c1ccc2c(c1)CC(=O)N2C`, with inactive: 10.8%.
Still for that read-out and setting: the same measure for `O=C(CSc1n[nH]c(-c2ccc(F)cc2)n1)NCCc1ccccc1`: inactive: -18.7%; for `CCN(CC)CCNC(=O)c1c2c(nc3ccccc13)C(=O)N(C1CCCCC1)C2`: inactive: 7.96%; for `Cc1ccc(S(=O)(=O)NCCc2cn3ccsc3n2)c(C)c1`: inactive: -10.7%.
Take `COc1cccc(NC(=O)Cn2cc(C(=O)c3ccc(C)cc3)c(=O)c3cc(OC)ccc32)c1`: the “activity change, positive = activation” value is inactive: -24.3%.
The same measure, in the same setting: then `Cc1ccccc1NC(=O)Cn1c(=O)n(Cc2ccc3c(c2)OCO3)c(=O)c2ccccc21`, with inactive: -19.9%.
As to `CCOC(=O)c1c(Nc2ccc(OC)cc2)nnc(-c2ccccc2)c1-c1ccccc1`, the “activity change, positive = activation” value is inactive: -32.2%.
The same measure, in the same setting: then `CCOc1ccc(NC(=O)COc2ccc(S(=O)(=O)NC3CCCCC3)cc2)cc1`, with inactive: -33.3%; and `CN1CCN(c2ncc3c(n2)CCN(Cc2ccc(Br)s2)C3)CC1`, with inactive: -15.3%.
`COc1ccc(-c2csc(=Nc3ccccc3)n2CCO)cc1F`: the “activity change, positive = activation” value was inactive: 21%.
Still for that read-out and setting: the same measure for `Cc1cccn2c(=O)c(C(=O)NCc3cccc(F)c3)cnc12`: inactive: 4.8%.
On the same count and under the same terms, the same measure for `CCOc1ccc(CNC(=O)Cc2ccc(NC(=O)N3CCSc4ncccc43)cc2)cc1`: inactive: -17.6%; for `Cc1cccc(-c2nc3scc(CCNS(=O)(=O)c4ccc5c(c4)OCCO5)n3n2)c1`: inactive: -25.3%.
The same measure, in the same setting: the same measure for `Cc1ccc(Cl)cc1Nc1nn2c(=O)c3ccc(C(=O)NCc4ccc(F)cc4)cc3nc2s1`: inactive: -9.93%; for `CCCOc1ccc(-c2nc(SCC(=O)c3ccc(Cl)cc3)n[nH]2)cc1`: inactive: 22.9%.
In the case of `CC(=O)c1ccc(N2CCN(C(=O)C3CCN(S(=O)(=O)c4cn(C)cn4)CC3)CC2)cc1`, the “activity change, positive = activation” value is inactive: -5.62%.
`Cn1c(=O)c2sccc2n2c(CCC(=O)NCc3ccc(Cl)cc3)nnc12`: the “activity change, positive = activation” value is inactive: -14.9%.
Turning to `CN(C)CCN(Cc1ccccc1)c1ccccn1`, the “activity change, positive = activation” value was inactive: 0.42%.
